# Read counts are not given, so values of variants with three or more changes are uncertain.
# B1: LINE1-mini (parent)
# chain: GGCAGAGCUCAACACAGCGUGGCAAAGUGGCUGUGGCUAGACUGCC
# Variants of: B1
# Experiment: self-cleavage, relative activity (ratio to wild type); higher = more cleavage; in vitro, sequencing; the parent is a self-cleaving ribozyme
row,Variant,self-cleavage
1,A6U G7U U9A A12U U34A,0.23
2,A6U G7U C31G G35U,0.03
3,A6G G17C G36C A39G U43A,0.04
4,A6U G17U A24C G36C,0.08
5,A6U G7C A11G,0.04
6,A6U G33U A39U C42A,0.07
7,A6G U9G G30U G36C C37G C46A,0.1
8,A6G G30U G35C,0.05
9,A6G G7A C10A G30U,0.01
10,A6U A12G C42A,0.07
11,A6G C10A A14C U28G,0
12,G7A A11C G19U C45G,0
13,A6U U9A G40A G44C,0.08
14,A6G G17A C46A,0.02
15,A6G C8U U9C G22C,0.04
16,A6U C10A G17A A25U,0.02
17,A6G C13U A16U G17C C23A G35C G36A C42U,0.08
18,A6U A25U C37G C42A G44A,0.28
19,A6U U9G A25U U34C G36U,0.02
20,G7A A11C C13A G30U G40C,0.02
21,A6U C15U A24U G30U,0.14

row,Variant,self-cleavage
1,A6U G7U C10G G21A U32C A39G C42G,0.02
2,A6U A12G G44U,0.02
3,A6U A11G C18U C31G,0.01
4,A6G C15A C31G G33A,0.01
5,A6U G29A G35A,0.03
6,G7A A24G C31U,0.04
7,A6G C18U G19C,0.05
8,A6U C18G U20C G21U G36C,0.04
9,G7A A11G G29U U32C,0.08
10,A6U G7C G17A C42G C45A,0.05
11,A6U A14U C23G U38A,0.9
12,A6U C23A G36U C45G,0.23
13,A6U C15U C42G,0.01
14,A6U G17U A25G G35C C45A,0.01
15,A6G G21U G22A,0.04
16,A6G C31G U34G,0.01
17,A6G G7U U9A C10U U32C G44C,0.02
18,G7A A11G C23U U32C,0.01
19,A6G G7A A11U G36U A39U C46G,0.01
20,A6G U28C G36A C45G,0.26
21,G7A A11G U28G A39U,0.01

row,Variant,self-cleavage
1,A6G G17U C37A,0.01
2,G7A A26C U28A G35A C45A,0.15
3,A6U G29A C31A,0.49
4,A6U G19A G29A A41U C45A,0.09
5,A6U G35U G36A C37U,0.72
6,A6U A11U A16U G29A C31G,0.02
7,A6U G7U C10A C23U,0.02
8,G7A A24G A39U,1.26
9,G7A A16C G29C G30U,0.05
10,A6U U9G G17C,0.42
11,A6U G33U C37G C45G,0.01
12,A6G U9G C18G,0.04
13,A6G C13G C18U,0.05
14,G7A C8A A12U,0.32
15,A6G C18U C23A C45A,0.07
16,A6U A16G C23U G40C,0.16
17,G7A A26U A39C G44C,0.11
18,A6G G19C C31U G40U,0.04
19,A6U U20G A26C G30U U43C,0.01
20,A6G G7A C8G A24C,0.12
21,G7A A11C C13G G19C A24C,0.02

row,Variant,self-cleavage
1,A6U C8A G21U,0.25
2,A6G C10U A16C G33U,0.03
3,A6U U9C G22A G27C G40U,0.04
4,G7A A25G G44U,0.12
5,A6U C18U G21U G44C C46A,0.03
6,A6U G7C C10A G19A G27A,0.01
7,A6G C15A G17U U34G,0.03
8,A6G C8U U28C A39G,0.02
9,A6U A14U C15G G17C U20G,0.02
10,G7A C8A G36C,0.72
11,G7A A11G U20A G27A,0.01
12,A6U C10U G19U G33U,0.05
13,A6U G17U C42G,0.06
14,A6G U9G A25G G40A,0.03
15,A6G U34G G44C C45A,0.01
16,A6U A26U G36U,0.12
17,G7A A16U G17C C31A G35U C45U,0
18,A6G C13U A16U G21U G27U C31U G36C,0.01
19,A6U A11G G29C U43C,0.01
20,A6U C23U G33A G40C,0.39

# Source: the RNAGym collection of RNA variant scans (doi:10.7554/elife.90254)
